Measured values published in the supplement of paper PMC3334620.
Whole data set: some 33,000 sequences, median “E-score (-0.5 to 0.5)” near -0.054, cut for the highest 2% near 0.39. This is one part of the list.

target: Ylr278c (UniProt Q05854); test: PBM E-score (8-mer binding enrichment) (E-score (-0.5 to 0.5)); higher = stronger / more preferred TF binding; most listed sequences are background and not binding sites; conditions: protein concentration: 200 nM; construct: GST-DNA-binding domain
Method: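 Universal 'all 10-mer' protein binding microarrays (Agilent AMADID 015681) probed with GST-tagged S. cerevisiae TFs (full-length or DBD) made by in vitro transcription/translation (PURExpress), about 100-200 nM. Bound TF was detected with fluorescent anti-GST. Each ungapped 8-mer (which stands for itself and its reverse complement) is scored by the PBM enrichment score (E-score), a modified Wilcoxon-Mann-Whitney statistic from -0.5 to +0.5, computed with the Universal PBM Analysis Suite. Scale: above 0.35 generally sequence-specific binding.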

Point of comparison: ACACGAGC, “PBM E-score” value -0.169. Against it:
- GTGATAGA — higher, -0.0764
- GCGGAAGC — higher, 0.272
- CTGGGACC — lower, -0.274
- CCGCGATC — higher, 0.259
- CATTCCAC — higher, -0.0106
- CTGCTCAA — lower, -0.251
- AACCATAG — higher, 0.0626
- ACTGTGAC — higher, -0.145
- GGCAAGCA — higher, -0.135
- GGCTTAGA — lower, -0.256
- AACTCCAG — higher, 0.00847
- GGATGACA — higher, 0.0528
- ATCCAAGG — higher, 0.0179
- CTTAGTTA — lower, -0.191
- ACAGTCGG — higher, 0.211
- TAACACGA — higher, -0.00428
- AGTCCTAA — higher, -0.163
- TGGACTAA — lower, -0.188
- ACACACGT — lower, -0.224
- AGCAAAAA — higher, 0.0154
- ACTATCGG — higher, 0.308
- CAATGTCA — the same, -0.169
- CTTCCGTA — higher, 0.215
- ACGTAATC — higher, 0.00425
- TCACGGCA — higher, 0.121
- CCGAGGCG — higher, 0.189
- ACTCTGTG — higher, -0.143
- CCACATCA — higher, 0.0135
- ATGGATTC — higher, -0.137
- AACCCCGG — higher, 0.458
- ACCCCTGA — higher, 0.0621
- AAGGTCAT — higher, -0.145
- CGGTGCCC — higher, 0.138
- AATTGAGT — higher, 0.044
- CTGTAACA — lower, -0.335
- AAAAAAGT — higher, -0.092
- GTCAGTGA — lower, -0.182
- TCCGATCA — higher, 0.385
- ACATATAT — higher, -0.0474
- ACGACGGC — higher, 0.0705
- CACTACGG — higher, 0.201
- AGTGACGG — higher, 0.17
- ACTTTGCC — higher, 0.0108
- AGAGAAAA — higher, 0.0726
- ATTGGACG — higher, -0.00534
- GTATATAA — the same, -0.169
- CCCTTTGC — higher, -0.106
- ATTTCGGC — higher, 0.275
- AGTGTTTA — higher, -0.00365
- CAGCTGCC — higher, 0.124
- AGCCAAGA — higher, -0.157
- ACAATCCA — higher, -0.0581
- AACTTAGC — lower, -0.178
- AGATAAAG — higher, -0.131
- ATTTAAAT — higher, -0.0559
- GGATTGCC — higher, 0.145
- ATGACTCG — higher, 0.0162
- CAAGCATG — lower, -0.186
- CAATTCAA — lower, -0.19
- ACCTTAAT — lower, -0.182
- AATCGGGC — higher, 0.0936
- CATTCGCG — higher, 0.246
- CGACGGGC — higher, 0.2
- CTAACGGC — higher, 0.114
- AGAGGCAT — higher, 0.0417
- AGACATAC — lower, -0.178
- CCAGCAAC — higher, 0.0323
- CGGATTTA — higher, 0.451
- AAAGAGAC — higher, -0.0916
- ATGCATCG — higher, 0.171
- AGTGTGAA — higher, -0.0842
- AGCGTCCG — higher, 0.16
- GAATGTTA — higher, 0.148
- AATTTAGG — higher, 0.00015
- ACGGCGAC — higher, 0.14
- ACTCCGGC — higher, 0.476
- GATGCTAA — higher, -0.0101
- AAGCATAA — higher, -0.0791
- GACAACTA — higher, -0.117
- ATCGTAGC — higher, -0.122
- GATTGGCA — lower, -0.2
- ACGAGCCT — lower, -0.218
- ACCAGCAA — higher, 0.117
- CTACCCTC — higher, -0.162
- AGCTAGAC — lower, -0.174
- CGTAGGCC — higher, -0.142
- GCCCTCGA — lower, -0.298
- AGCGTATC — higher, -0.124
- GCACCCAA — higher, 0.127
- ATGGGTTG — higher, -0.114
- CTAAGCAG — higher, -0.0236
- TCAATCCA — higher, -0.124
- GCGATCAA — higher, -0.0978
- GTCATGTA — lower, -0.224
- ATGAGATA — higher, -0.0679
- CCCGTCTC — higher, 0.126
- TCCGAGGA — higher, 0.401
- CCGGTCCG — higher, 0.45
- GGACTTAC — higher, 0.305
- GAATGGCC — higher, 0.283
- CTCCGGTC — higher, 0.455
- CATCGAGC — higher, 0.0386
- CAGTCGTC — higher, -0.0543
- CCTCCTGA — lower, -0.172
- CATTCAAG — higher, -0.154
- CTACTTAA — lower, -0.181
- CCTCCGTA — higher, 0.37
- AGTCCTAG — higher, -0.133
- GAGTATGC — higher, 0.1
- GGCTCACA — higher, -0.0723
- GACACGTA — lower, -0.186
- CAGCGTAG — higher, -0.0957
- CATGTCGG — higher, 0.23
- AAGGACCG — higher, 0.177
- AGCGTCTC — higher, 0.0181
- ACCGTGAC — higher, 0.0148
- ACTTGACC — higher, -0.163
- CGTGGTAC — lower, -0.178
- AAAAATGG — higher, 0.0789
- TCCATACA — higher, -0.0994
- TATTTCCA — higher, 0.0948
- CGGAGCCC — higher, 0.37
- AGAAGACA — lower, -0.214
- AGGAGAGC — lower, -0.275
- CTATAGCA — higher, -0.158
- AAGCGTTG — lower, -0.256
- ATACAGTA — higher, -0.11
- CCGGGCAG — higher, 0.254
- CAGCCGCG — higher, 0.118
- GACCAGAA — lower, -0.17
- GCGAGGCC — higher, -0.0939
- ACCAACCG — higher, 0.0753
- GCCGGGCC — higher, 0.28
- ACGAATAA — higher, 0.0238
- GGGCCTTA — higher, -0.145
- AGGTCTCG — higher, -0.0595
- GTTTCGAA — higher, -0.0713
- AGCCCCCA — lower, -0.327
- TCCTTGCA — higher, -0.0166
- GTACGAAC — higher, 0.109
- GCAGAACA — higher, 0.0396
- AGATATCC — higher, 0.123
- AAATGATT — higher, 0.177
- ATGTCAGA — higher, -0.161
- CTACTGGA — higher, -0.133
- TCCGTGAA — higher, 0.292
- ACGATCGC — higher, 0.065
- AGCGAACA — higher, 0.0531
- AGGGACAA — higher, 0.0139
- GTAAAGGA — higher, -0.0781
- CACTTGAG — higher, -0.156
- ACCCCCTA — lower, -0.413
- TAAGAGCA — lower, -0.216
- GCGAATCA — higher, 0.0285
- GCTTAGAC — lower, -0.237
- CCAAGGCC — higher, -0.0974
- ATGAGTGG — higher, -0.147
- CAATAAAG — higher, -0.118
- ACGCGCAT — higher, -0.0626
- CCCCTGGA — higher, -0.132
- CACGAACA — higher, -0.09
- ATGTTTGA — lower, -0.177
- TCCTGGCA — higher, -0.153
- CGCCGGGA — higher, 0.412
- GCGCTCCC — higher, -0.0394
- CATGTATA — lower, -0.306
- ATAACGTA — higher, 0.0163
- ATGCTGTG — higher, -0.133
- AGTGTTTC — higher, -0.104
- TGCTCACA — lower, -0.331
- AGTTGAAC — lower, -0.259
